Reference: patent US20170190774A1 (REPROPHARM, published 2017)

Experiments:
bovine LH (bLH) [1] = molecular target: bovine LH (bLH) (bovine); test: ELISA, hormone adsorbed on the plate, scFv titrated, anti-His HRP; (A/B)x100 relative to oFSH
Experimental: (§1) The specificity of the antibodies and of the scFv thereof was studied by the ELISA technique. Each hormone evaluated was prepared at the concentration of 10 μg/ml in a 0.1M sodium carbonate buffer, pH 9.6, and distributed in a proportion of 100 μl per well on an ELISA plate. The adsorption time was 18 hours at +4° C. After five washes, the wells were treated with 100 μl of PBS supplemented with 0.1% Tween and 1% BSA for 45 minutes at 37° C., then each antibody or scFv was distributed in a proportion of 100 μl/well and incubated for one hour at 37° C. On each hormone evaluated, the antibodies and the scFvs were distributed at various concentrations according to a range of 10 to 250 μg/ml for the antibodies and of 10 to 150 or 200 μg/ml for the scFvs.
(§2) After five washes, a secondary antibody coupled to peroxidase (HRP) was distributed in a proportion of 100 μl/well and incubated for one hour at 37° C. […] For the scFvs, an anti-His Tag HRP (Ref. R93125 Life Technologies, France) was used. […] After the reaction had been stopped with 1M H₂SO₄ (50 μl/well), the strength of the colored reaction (optical density) was measured using a spectrophotometer for ELISA plates.
(§3) The percentage of cross reaction was calculated conventionally by comparing the dose-response curves obtained with the concentration range of the antibody or of the scFv.

porcine LH (pLH) [2] = molecular target: porcine LH (pLH) (porcine); test: as above
Experimental: as §1, §2, §3

ovine LH (oLH) [3] = molecular target: ovine LH (oLH) (ovine); test: as above
Experimental: as §1, §2, §3

bovine LH (bLH) [4] = molecular target: bovine LH (bLH) (bovine); test: ELISA saturation binding, one site-specific binding fit in GraphPad Prism (estimate)
Experimental: as §1

porcine LH (pLH) [5] = molecular target: porcine LH (pLH) (porcine); test: as above
Experimental: as §1

ovine LH (oLH) [6] = molecular target: ovine LH (oLH) (ovine); test: as above
Experimental: as §1

ovine FSH (oFSH) = ovine FSH (oFSH) (ovine); test: as above
Experimental: as §1

[7] = molecular target: T1, equine chorionic gonadotropin (eCG) (equine); test: as above
T1 construct: mature; Alpha/beta dimer
Experimental: as §1

B1: CA5 scFv (scFv)
scFv: QVQLQQSGGGLVQPGGSLRLSCATSGFTFSDFYMEWVRQPPGKRLEWIAASRNKAKDYTTEYSASVKGRFIVSRDTSQSILYLQMNALRAEDTAIYFCARDARFAYWGQGTLVTVSAGGGGSGGGGSGGGGSDIQMTQTPSSLAVSVGEEITMS[about 80 residues omitted]FGGGTKLEIKHHHHHH
notes: VH-(Gly4Ser)3-VL-His6, made in the E. coli periplasm; also called scFv derived from the CA5 antibody
cross reaction (bovine LH (bLH) [1]): 33% | cross reaction (porcine LH (pLH) [2]): 29% | cross reaction (ovine LH (oLH) [3]): 25% | Kd (bovine LH (bLH) [4]): 2430 nM | Kd (porcine LH (pLH) [5]): 2470 nM | Kd (ovine LH (oLH) [6]): 1950 nM | Kd (ovine FSH (oFSH)): 540 nM | Kd [7]: 4070 nM
